Screen size: about 420,000 compounds; about 50,000 (12%) were called active. The shares of active, inactive and inconclusive entries below differ from those in the screen. The call rests on the fitted dose curve; in most records, active means well fitted inhibition curve with a large enough effect; inconclusive means small, poorly fitted or top-dose-only effect; inactive means flat fitted curve, though single readings scatter. Potencies of inconclusive entries are doubtful fits and often do not repeat.
Experiment: qHTS for Inhibitors of human tyrosyl-DNA phosphodiesterase 1 (TDP1): qHTS in cells in presence of CPT; further: nearly all actives have a fitted effect of over 55% in size
Conditions: chicken DT40 Tdp1-/-;hTDP1 cells + 20 nM CPT, ATP luminescence, 48 h; activity change, negative = growth inhibition: at 46.2 µM (top of the series)
Summary of the method: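 Chicken DT40 Tdp1-/- cells complemented with human TDP1, 400 cells/well, exposed to compounds plus 20 nM camptothecin for at least 48 h at 37 C; viability read as ATP content by CellTiter-Glo luminescence.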
On the % scale 0 is the no-effect control and ±100 the full control effect; potency means the concentration at half of the fitted maximal effect; tags describe the fitted curve by direction and shape.

| Compound | Potency | activity change, negative = growth inhibition |
| --- | --- | --- |
| O=C(NCc1ccco1)c1cccc(-c2ccc3nccn3c2)c1 | inconclusive: 25.9 µM [inhibitor, single point] | – |
| COc1cc(/C=C(\C#N)c2nc3ccccc3n2C)cc(OC)c1O | inconclusive: 29.1 µM [inhibitor, single point] | – |
| N#Cc1c(N)n(-c2cccc(O)c2)c2nc3ccccc3nc12 | – | inactive: -13% |
| CCC(=O)Nc1nc(=S)ss1 | inconclusive: 25.9 µM [inhibitor, single point] | – |
| CCc1c(C(=O)Nc2ccc(C)c(C)c2)[nH]c(C)c1C(C)=O | inconclusive: 29.1 µM [inhibitor, single point] | – |
| Cc1c(C(=O)N(C)CCC#N)oc2ccc(S(=O)(=O)N3CC(C)CC(C)C3)cc12 (stereo unspecified) | inconclusive: 18.4 µM [inhibitor, single point] | – |
| Cc1cnc(NC(=O)c2sc(Nc3ccccc3)nc2N)o1 | inconclusive: 23.1 µM [inhibitor, single point] | – |
| O=C(NCCCN1CCCC1=O)C(=O)NCC1OCCN1S(=O)(=O)c1ccc(Br)cc1 (stereo unspecified) | active: 18.4 µM | – |
| COc1ccc(-c2cccc(NS(=O)(=O)c3cccs3)c2)nn1 | inconclusive: 18.4 µM [inhibitor, single point] | – |
| CN(CCc1ccccc1)C(=O)c1cccc(NC(=O)Cc2ccc([N+](=O)[O-])cc2)c1 | inconclusive: 29.1 µM [inhibitor, single point] | – |
| COC(=O)c1ccc(C(NC(=O)OCc2ccccc2)/C(C)=C/[C@@H](C)C(=O)NCc2ccc(OC)c(OC)c2)cc1 (stereo partly specified) | inconclusive: 20.6 µM [inhibitor, single point] | – |
| O=C(Cn1cnc2ccccc2c1=O)N(Cc1ccco1)c1ccc(O)cc1 | inconclusive: 13 µM [inhibitor, partial curve] | – |
| O=C(Cn1cnc(S(=O)(=O)N2CCOCC2)c1)Nc1ccc(OC(F)(F)F)cc1 | – | inactive: -7.14% |
| Clc1ccc(N2CCN(Cc3nnc(-c4ccc5c(c4)OCO5)o3)CC2)cc1 | inconclusive: 29.1 µM [inhibitor, single point] | – |
| CNC(=O)C[C@H]1C(=O)N(Cc2ccccc2)C[C@@H]1C | – | inactive: 1.01% |
| Cn1nnnc1SCC(=O)N1CCCc2ccccc21 | – | inactive: -7.54% |
| CC1CC(C)CN(c2ncc3c(n2)CC(c2ccc(Cl)cc2)CC3=O)C1 (stereo unspecified) | inconclusive: 9.2 µM [inhibitor, partial curve, poor fit] | – |
| Cc1cc(C)c2nc(N3CCCC(C(=O)N4CCC(C(N)=O)CC4)C3)sc2c1 (stereo unspecified) | inconclusive: 23.1 µM [inhibitor, partial curve, poor fit] | – |
| CCOC(=O)N1CCN(S(=O)(=O)c2ccc(C(=O)Nc3nc4ccccc4s3)cc2)CC1 | inconclusive: 25.9 µM [inhibitor, single point] | – |
| CC(=O)Nc1ccc2nc(CN3CCC(CO)(CCc4ccccc4)CC3)ccc2c1 | inconclusive: 29.1 µM [inhibitor, single point] | – |
| O=C(CN1CCCCCCC1)N/N=C/c1ccc([N+](=O)[O-])o1 | inconclusive: 10.3 µM [inhibitor, single point] | – |
| COCCn1c(=O)c(-c2cccc(Cl)c2)nc2cncnc21 | – | inactive: -6.5% |

| Compound | Potency | activity change, negative = growth inhibition |
| --- | --- | --- |
| Nc1nonc1-n1nnc(C(=O)N/N=C/c2ccc(OCc3cccc(Cl)c3)cc2)c1CN1CCCCC1 | inconclusive: 18.4 µM [inhibitor, single point] | – |
| CCCCN(CC)C(=O)c1c[nH]c2ccc(S(=O)(=O)Nc3cccc(OC)c3)cc2c1=O | – | inactive: -16% |
| COc1ccc(NC(=O)C2=C(C)Nc3c(C(=O)Nc4ccc(C)cc4)cnn3C2c2cccc(Cl)c2)cc1 (stereo unspecified) | inconclusive: 20.6 µM [inhibitor, single point] | – |
| COc1ccc(S(=O)(=O)N2CCN(c3nn(C)c(=O)n(C)c3=O)CC2)cc1 | inconclusive: 18.4 µM [inhibitor, partial curve] | – |
| O=C(CCCn1c(=O)c2cccn2c2ccccc21)Nc1cccc(Cl)c1 | inconclusive: 29.1 µM [inhibitor, single point] | – |
| C=CCn1cc(C(=O)NCCCOCC)c(=O)c2cc(S(=O)(=O)N(CC)CC)ccc21 | inconclusive: 32.6 µM [inhibitor, single point] | – |
| COc1ccc(C(C(=O)NCc2ccccc2)N(Cc2cccnc2)C(=O)c2snc(C(N)=O)c2N)cc1OC (stereo unspecified) | – | inactive: -3.73% |
| CC(C)c1cc(C(=O)NC2CCCc3c2cnn3-c2ccccc2F)no1 (stereo unspecified) | inconclusive: 18.4 µM [inhibitor, single point] | – |
| O=C1C2C3C=CC(C3=C3CCCCC3)C2C(=O)N1c1ccccc1 (stereo unspecified) | inconclusive: 18.4 µM [inhibitor, partial curve] | – |
| COc1cccc(CC(=O)OCC(=O)c2cc(OC)c(OC)c(OC)c2)c1 | – | inactive: -1.57% |
| Cc1onc(-c2ccccc2)c1C(=O)N1CCN(c2ccc([N+](=O)[O-])cc2)CC1 | inconclusive: 25.9 µM [inhibitor, single point] | – |
| Cc1oc2ccc(O)c(CN3CCOCC3)c2c1C(=O)Nc1ccc(C(C)C)cc1 | active: 16.4 µM | – |
| CCc1cc(Cl)c(OC)c(C(=O)NC[C@@H]2CCCN2CC)c1O | inconclusive: 21.1 µM [inhibitor, single point] [middle of 5 runs] | – |
| Cc1ccc2onc(CC(=O)N3CCN(c4ccccc4F)CC3)c2c1 | inconclusive: 23.1 µM [inhibitor, partial curve] | – |
| COc1ccccc1CNC(=O)C1CCCN(S(=O)(=O)c2ccc3c(c2)C(C)(C)C(=O)N3C)C1 (stereo unspecified) | inconclusive: 20.6 µM [inhibitor, single point] | – |
| COc1cc(OC)cc(-c2cc3cc4c(cc3cn2)OCO4)c1 | active: 0.651 µM | – |
| Cc1cccc(-c2nc3ccc(C(=O)NCCN4CCN(C)CC4)cc3nc2-c2cccc(C)c2)c1 | inconclusive: 29.1 µM [inhibitor, single point] | – |
| COc1ccc(S(=O)(=O)N2CCC(C(=O)Nc3cccc(C(C)=O)c3)CC2)cc1C | active: 11.2 µM | – |
| CC(=O)c1cccc(NC(=O)c2c(-c3c(F)cccc3Cl)noc2C)c1 | – | inactive: -3.95% |
| Cn1ncc2c(NCCc3ccccc3)nc(Cl)nc21 | active: 23.1 µM | – |
| CCN1CCN(c2cc(C)c3cc(NC(=O)CCC(=O)N4CCN(c5ccccc5)CC4)ccc3n2)CC1 | inconclusive: 29.1 µM [inhibitor, single point] | – |
| COc1ccc(NC(=O)C2CCCN(S(=O)(=O)c3ccc(C)cc3)C2)cc1OC (stereo unspecified) | – | inconclusive: -32.9% [inhibitor] |

| Compound | Potency | activity change, negative = growth inhibition |
| --- | --- | --- |
| CC(=O)NC(c1ccc(F)c(F)c1)c1nc(-c2cnc3ccccc3c2)cs1 (stereo unspecified) | inconclusive: 29.1 µM [inhibitor, single point] | – |
| CCOc1ccc2cc(C#N)c(SCC(=O)OCc3ccccc3)nc2c1 | inconclusive: 3.55 µM [inhibitor, full curve] | – |
| COc1ccc(Br)cc1/C=N/NC(=O)CNC(=O)c1cccnc1 | inconclusive: 18.4 µM [inhibitor, single point] | – |
| O=C(CCS(=O)(=O)c1ccc(Cl)cc1)Nc1nnc(-c2cccs2)o1 | active: 16.4 µM | – |
| COc1cc2c(cc1O)[C@@H]1Cc3cc(O)c(OC)cc3[C@H](C2)N1C | inconclusive: 5.17 µM [inhibitor, partial curve] | – |
| COc1ccc(/C=C/C(=O)NC(=S)NCCc2ccc(OC)c(OC)c2)cc1 | inconclusive: 16.4 µM [inhibitor, single point] | – |
| O=C(CSc1cccc[n+]1[O-])Nc1c(Br)cc([N+](=O)[O-])cc1Br | – | inactive: -29.6% |
| CC1CCN(S(=O)(=O)c2ccc3c(ccn3CCC(=O)N3CCCCC3)c2)CC1 | inconclusive: 29.1 µM [inhibitor, single point] | – |
| CC(NC(=O)c1ccc([N+](=O)[O-])cc1[N+](=O)[O-])c1ccc(-c2ccccc2)cc1 (stereo unspecified) | active: 13 µM | – |
| COc1ccc(Cn2cc(CN3CC(N4CCN(CCN(C)C)CC4)CS3(=O)=O)nn2)cc1 (stereo unspecified) | – | inactive: -1.6% |
| COc1ccc(C(=O)/C=C2/C(=O)Nc3ccccc32)c(OC)c1 | active: 4.11 µM | – |
| COc1cc2c(cc1OC)-c1cc(Nc3ccc(F)cc3)nc(=O)n1CC2 | inconclusive: 14.6 µM [inhibitor, single point] | – |
| COc1ccccc1N1CCN(C(c2ccccn2)c2nnnn2C2CCCCC2)CC1 (stereo unspecified) | inconclusive: 29.1 µM [inhibitor, single point] | – |
| CC(C)(C)OC(=O)N1CCC[C@H]1C(=O)N/N=C/c1cccc2nccnc12 | – | inactive: -18.9% |
| CC1CCN(C(=O)COC(=O)c2cccc(NS(=O)(=O)c3ccccc3)c2)CC1 | – | inactive: -6.81% |
| O=C(CCC(=O)N1CCN(S(=O)(=O)c2ccc(Cl)cc2)CC1)NCc1cccc(C(F)(F)F)c1 | inconclusive: 29.1 µM [inhibitor, single point] | – |
| CC(=O)Oc1ccc(N(C(C)=O)S(=O)(=O)c2cccs2)c2ccccc12 | active: 11.6 µM | – |
| CCCCN(CCCNC(=O)c1ccc(CS(=O)(=O)c2ccc(OC)cc2)o1)Cc1ccccc1 | inconclusive: 20.6 µM [inhibitor, partial curve] | – |
| O=[N+]([O-])c1ccc(N/N=C/c2ccc(O)c(O)c2O)c(S(=O)(=O)N2CCOCC2)c1 | active: 4.11 µM | – |
| COc1ccc(C(=O)NCC(c2cccnc2)N2CCN(c3ccccc3F)CC2)cc1OC (stereo unspecified) | inconclusive: 32.6 µM [inhibitor, single point] | – |
| COc1ccccc1/C=C1\SC(=S)N(CCC(=O)NCCCn2ccnc2)C1=O | – | inactive: 9.43% |
| CCN(CC(=O)Nc1ccc(NC(C)=O)cc1)C(=O)/C=C/c1cn(-c2ccccc2)nc1-c1ccc(C)cc1 | inconclusive: 25.9 µM [inhibitor, single point] | – |
